This passage reports binding signal results from publication PMC9911399, “Two distinct binding modes provide the RNA-binding protein RbFox with extraordinary sequence specificity”.

Substitutions are numbered along the chain they refer to; changes in the protein carry UniProt numbers. The list shows a part of the results.

The labels stand for the following.
T1: RBFOX1 RRM RbFoxmut (Fox-RRM*) (Homo sapiens, UniProt Q9NWB1 109-208, R118D;E147R;N151S;E152T)
T1 sequence: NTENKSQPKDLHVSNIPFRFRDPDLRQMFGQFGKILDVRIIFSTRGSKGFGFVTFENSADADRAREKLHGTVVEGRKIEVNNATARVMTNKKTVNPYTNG

B1: CCCGGCG (DNA:RNA)
RNA: GGGAGACCGGAAUUCAGAUUGUCCCCCGGCGUUAAAUCCCGUCGUAGCCACCA
DNA 1: CAATCTGAATTCCGGTCTCCC
DNA 2: TGGTGGCTACGACGGGATT
B2: AGUGCUC (DNA:RNA)
RNA: B1 RNA with C25A, C26G, C27U, G29C, C30U, G31C
DNA 1: CAATCTGAATTCCGGTCTCCC
DNA 2: TGGTGGCTACGACGGGATT
B3: GCGUGCG (DNA:RNA)
RNA: B1 RNA with C25G, C27G, G28U
DNA 1: CAATCTGAATTCCGGTCTCCC
DNA 2: TGGTGGCTACGACGGGATT
B4: UCCAGUG (DNA:RNA)
RNA: B1 RNA with C25U, G28A, C30U
DNA 1: CAATCTGAATTCCGGTCTCCC
DNA 2: TGGTGGCTACGACGGGATT
B5: UGAAGAU (DNA:RNA)
RNA: B1 RNA with C25U, C26G, C27A, G28A, C30A, G31U
DNA 1: CAATCTGAATTCCGGTCTCCC
DNA 2: TGGTGGCTACGACGGGATT
B6: UUUGUAC (DNA:RNA)
RNA: B1 RNA with C25U, C26U, C27U, G29U, C30A, G31C
DNA 1: CAATCTGAATTCCGGTCTCCC
DNA 2: TGGTGGCTACGACGGGATT
B7: UUGCCGU (DNA:RNA)
RNA: GGGAGACCGGAAUUCAGAUUGUCCUUGCCGUUUAAAUCCCGUCGUAGCCACCA
DNA 1: CAATCTGAATTCCGGTCTCCC
DNA 2: TGGTGGCTACGACGGGATT
B8: AAUGAUA (DNA:RNA)
RNA: B1 RNA with C25A, C26A, C27U, G29A, C30U, G31A
DNA 1: CAATCTGAATTCCGGTCTCCC
DNA 2: TGGTGGCTACGACGGGATT
B9: GAUACGG (DNA:RNA)
RNA: B7 RNA with U25G, U26A, G27U, C28A, U31G
DNA 1: CAATCTGAATTCCGGTCTCCC
DNA 2: TGGTGGCTACGACGGGATT
B10: CCGAACG (DNA:RNA)
RNA: B1 RNA with C27G, G28A, G29A
DNA 1: CAATCTGAATTCCGGTCTCCC
DNA 2: TGGTGGCTACGACGGGATT
B11: UAAGAUG (DNA:RNA)
RNA: B1 RNA with C25U, C26A, C27A, G29A, C30U
DNA 1: CAATCTGAATTCCGGTCTCCC
DNA 2: TGGTGGCTACGACGGGATT
B12: CUUUCAC (DNA:RNA)
RNA: B7 RNA with U25C, G27U, C28U, G30A, U31C
DNA 1: CAATCTGAATTCCGGTCTCCC
DNA 2: TGGTGGCTACGACGGGATT
B13: CGCAAGG (DNA:RNA)
RNA: B1 RNA with C26G, G28A, G29A, C30G
DNA 1: CAATCTGAATTCCGGTCTCCC
DNA 2: TGGTGGCTACGACGGGATT
B14: UAUCCCG (DNA:RNA)
RNA: B7 RNA with U26A, G27U, G30C, U31G
DNA 1: CAATCTGAATTCCGGTCTCCC
DNA 2: TGGTGGCTACGACGGGATT
B15: GGAGAAC (DNA:RNA)
RNA: B1 RNA with C25G, C26G, C27A, G29A, C30A, G31C
DNA 1: CAATCTGAATTCCGGTCTCCC
DNA 2: TGGTGGCTACGACGGGATT
B16: UCCGAAA (DNA:RNA)
RNA: B1 RNA with C25U, G29A, C30A, G31A
DNA 1: CAATCTGAATTCCGGTCTCCC
DNA 2: TGGTGGCTACGACGGGATT
B17: GUUUCUC (DNA:RNA)
RNA: B7 RNA with U25G, G27U, C28U, G30U, U31C
DNA 1: CAATCTGAATTCCGGTCTCCC
DNA 2: TGGTGGCTACGACGGGATT
B18: ACGUUUU (DNA:RNA)
RNA: B7 RNA with U25A, U26C, C28U, C29U, G30U
DNA 1: CAATCTGAATTCCGGTCTCCC
DNA 2: TGGTGGCTACGACGGGATT
B19: UGCAGGA (DNA:RNA)
RNA: B1 RNA with C25U, C26G, G28A, C30G, G31A
DNA 1: CAATCTGAATTCCGGTCTCCC
DNA 2: TGGTGGCTACGACGGGATT
B20: CUGGCGU (DNA:RNA)
RNA: B7 RNA with U25C, C28G
DNA 1: CAATCTGAATTCCGGTCTCCC
DNA 2: TGGTGGCTACGACGGGATT

The target of the test is T1, RBFOX1 RRM RbFoxmut (Fox-RRM*). The experiment in a line: EMSA; HiTS-Eq, 1 nM pool, 10 min; buffer printed only for the single-RNA assays: 10 mM Tris pH 7.5, 150 mM NaCl, 3.4 mM EDTA, 0.001% NP-40, 30 C. The note with it: tags: His6 N-terminal (pET28a); label: 5' 32P. The procedure, abridged: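 Purified RbFox RRM (wild type or mutant) was equilibrated for 10 min in 50 µL with 1 nM of a 5′-radiolabelled pool of RNA with 7 randomized nucleotides, its flanks annealed to DNA oligonucleotides, across increasing protein concentrations. Free RNA was separated by 8% native PAGE, excised, reverse-transcribed, PCR-barcoded and sequenced on an Illumina HiSeq 2500. Relative association constants came from read-count changes of each variant against the control reaction, normalised to the cognate motif.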
In general terms: Mobility shift assays separate free from complexed probe on a gel.
As to B1, the binding signal is 0.098 KA relative to UGCAUGU. To B2 belongs 0.094 KA relative to UGCAUGU; to B3, 0.158 KA relative to UGCAUGU; to B4, 0.125 KA relative to UGCAUGU. The figure for B5 is 0.0683 KA relative to UGCAUGU.

Consider B6, for which the binding signal is 0.126 KA relative to UGCAUGU.

In the case of B7, the binding signal was 0.0995 KA relative to UGCAUGU.

As to B8, the binding signal was 0.106 KA relative to UGCAUGU. To B9 belongs 0.0485 KA relative to UGCAUGU; to B10, 0.211 KA relative to UGCAUGU; to B11, 0.0888 KA relative to UGCAUGU. To B12 belongs 0.121 KA relative to UGCAUGU; to B13, 0.0732 KA relative to UGCAUGU; to B14, 0.0819 KA relative to UGCAUGU. To B15 belongs 0.0549 KA relative to UGCAUGU.

Regarding B16, the binding signal is 0.0481 KA relative to UGCAUGU. On to B17, for which the binding signal was 0.0743 KA relative to UGCAUGU. To B18 belongs 0.101 KA relative to UGCAUGU; to B19, 0.0846 KA relative to UGCAUGU; to B20, 0.135 KA relative to UGCAUGU.
